The text below walks through data of US20190375823A1.

The target of experiment [1] is HER2 and HER3 on cells (MALME-3M or SKOV cells). Description: FACS; column head prints Bmax (MALME 20120603).
Experiment [2] shares this target. Description: FACS on SKOV cells (20120803), FITC-labeled anti-HSA antibodies; apparent Kd.
For experiment [3] the target is unchanged. Description: FACS on MALME-3M cells (2012529), FITC-labeled anti-HSA antibodies.
For experiment [4] the target is unchanged. Description: FACS on SKOV-3 cells, FITC-labeled anti-HSA detection.
For experiment [5] the target is unchanged. Description: FACS on MALME-3M cells (20120529), FITC-labeled anti-HSA antibodies; apparent Kd.

B1: v1090: AlbuCORE_1 (ABH2) with anti-HER3 at the N terminus of fragment 1 and anti-HER2 (B1D2) at the C terminus of fragment 2 (bispecific antibody)
chain 1: QVQLQESGGGLVKPGGSLRLSCAASGFTFSSYWMSWVRQAPGKGLEWVANINRDGSASYYVDSVKGRFTISRDDAKNSLYLQMNSLRAEDTAVYYCARDRGVGYFDLWGRGTLVTVSSASTGGGGSGGGGSGGGGSQSALTQPASVSGSPGQSITISCTGTSSDVGGYNFVSWYQQHPGKAPKLMIYDVSDRPSGVSDRFSGSKSGNTASLIISGLQADDEADYYCSSYGSSSTHVIFGGGTKVTVLGGGSDAHKSEVAHRFKDLGEENFKALVLIAFAQYLQQCPFEDHVKLVNEVTEFAKTCVADESAENCDKSLHTLFGDKLCTVATLRETYGEMADCCAKQEPERNECFLQHKDDNPNLPRLVRPEVDVMCTAFHDNEETFLKKYLYEIARRHPYFYAPELLFFAKRYKAAFTECCQAADKAACLLPKLDELRDEGKASSAKQRLKCASLQKFGERAFKAWAVARLSQRFPKAEFAEVSKLVTDLTKVHTECCHGDLLECADDRADLAKYICENQDSISSKLKECCEKPLLEKSHCIAEVENDEMPADLPSLAADFVESKDVCKNYAEAKDVFLGMFLYEYARA
chain 2: SVVLLLRLAKTYETTLEKCCAAADPHECYAKVFDEFKPL[about 200 residues skipped]GGSGQVQLVQSGAEVKKPGESLKISCKGSGYSFTSYWIAWVRQMPGKGLEYMGLIYPGDSDTKYSPSFQGQVTISVDKSVSTAYLQWSSLKPSDSAVYFCARHDVGYCTDRTCAKWPEWLGVWGQGTLVTVSSGGGGSSGGGSGGGGSQSVLTQPPSVSAAPGQKVTISCSGSSSNIGNNYVSWYQQLPGTAPKLLIYDHTNRPAGVPDRFSGSKSGTSASLAISGFRSEDEADYYCASWDYTLSGWVFGGGTKLTVLG
As usually defined, the EC50 (read off the curve) is the concentration that produces a half-maximal response. A lower EC50 (read off the curve) goes with higher potency in that assay. Turning to B1, the results for the Bmax in experiment [1] and in experiment [3] were 2660 and 323, respectively. Further, the Kd in experiment [2] was found to be 9.4 nM; in experiment [5], 200 nM. In addition, the EC50 (read off the curve) in experiment [4] is 8 nM.
